The record followed here is ChEMBL document CHEMBL4888484, “Replenishing the malaria drug discovery pipeline: Screening and hit evaluation of the MMV Hit Generation Library 1 (HGL1) against asexual blood stage Plasmodium falciparum ,using a nano luciferase reporter read-out” (2022).

Each structure is given as a SMILES string. Out of some 150,000 compounds screened, about 540 (0.36%) showed an effect of 50% or more. The list shows a part of the results.

The assay has as its system Plasmodium falciparum. The experiment in a line: Primary screen in NF54 nanoGlo assay, in single point, at 2uM, 72h; a lower Z score goes with more inhibition. It is filed as functional, Erythrocyte. The conditions noted are these: timepoint 72 hour.
In the case of `O=C(Cc1c(Cl)cccc1Cl)N1CC[C@H](Oc2ccccn2)C1`, the % Inhibition (in general, the relative decrease from the control value, in per cent) is listed as -6% and the Z score was 1.18.

With `COc1cc(-c2nc(CN3CCS(=O)(=O)CC3)c(C)o2)cc2c1OCO2`, the “% Inhibition” value is given as -2% and the Z score turned out to be 0.4.

On to `Cc1ccccc1[C@@H](O)C1CCN(CCc2cscn2)CC1`, for which the “% Inhibition” value is -6% and the Z score was determined as 1.09.

For the molecule `Cc1sc2c(C)cccc2c1S(=O)(=O)N1CCOC[C@H]1C(N)=O`, the “% Inhibition” value is listed as -8% and the Z score came out at 0.99.

In the case of `CNS(=O)(=O)c1cc(C(N)=O)ccc1OC`, the “% Inhibition” value was -9% and the Z score is on record as 1.25.

As to `CCN(Cc1cc(C)no1)Cc1c(C)nn(C)c1C`, the “% Inhibition” value was -11% and the Z score came to 1.46.

As to `CCC(CC)C(=O)Nc1c(C)cccc1O`, the “% Inhibition” value is given as -12% and the Z score is reported as 2.01.

On to `Cc1noc2nc(C3CC3)cc(-c3nc([C@H]4CCOC4)no3)c12`, for which the “% Inhibition” value is given as -18% and the Z score is listed as 1.85.

In the case of `Cc1n[nH]c2cc(NC(=O)Cc3noc4ccccc34)ccc12`, the “% Inhibition” value is -11% and the Z score is 1.16.

For `CC(O)CC(C)(C)CNC(=O)NCC1CCCOC1C(C)(C)C` (stereo not given), the “% Inhibition” value is reported as -6% and the Z score is recorded as 0.99.

Turning to `O=C(Nc1cccc(Oc2ccccc2)n1)[C@@H]1C[C@H]2CC[C@@H]1O2`, the “% Inhibition” value is -8% and the Z score is reported as 1.32.

Consider `O=C1OC[C@@H]2CCNCc3ccccc3N12`, for which the “% Inhibition” value is recorded as -4% and the Z score is listed as 0.55.

Regarding `O=C1CN(c2ccc(CNC(=O)NC(C3CC3)C3CC3)cc2)CCN1`, the “% Inhibition” value is recorded as -9% and the Z score is 1.13.

Consider `c1cncc(-c2nc(-c3cnccn3)n[nH]2)c1`, for which the “% Inhibition” value came out at 5% and the Z score is recorded as -0.87.

In the case of `O=C(NC[C@H]1CCCO1)Nc1ccc(Cl)c2ncccc12`, the “% Inhibition” value was 1% and the Z score was -0.08.

`CC(C)c1cc(N[C@H]2Cc3ccccc3[C@@H]2N)nc(N)n1`: the “% Inhibition” value came to 10% and the Z score is given as -2.05.

`CCCOCC(=O)Nc1c(C)ccn2ncnc12`: the “% Inhibition” value is on record as 2% and the Z score is given as -0.2.

As for `CCc1nc(C(=O)N(C)C2CC2)nn1-c1c(Cl)cccc1Cl`, the “% Inhibition” value is -4% and the Z score came to 0.69.

On to `Cc1nnc2ncc(-c3ccc4c(c3)OCCO4)cn12`, for which the “% Inhibition” value is -7% and the Z score amounted to 1.42.

In the case of `CN1CCC(CN(C)C(=O)C(C)(C)C2CC2)CC1`, the “% Inhibition” value turned out to be 13% and the Z score is listed as -2.15.

Consider `O=C(CC1CC1)N1CCC(CCc2noc(-c3ccc(F)cc3)n2)CC1`, for which the “% Inhibition” value is on record as -10% and the Z score is given as 1.67.

`CCCC[C@H](NC(=O)c1c(C)cccc1OC)C(N)=O`: the “% Inhibition” value is -10% and the Z score came out at 1.3.

`CCc1nc(CNC(=O)N2CCC[C@H](OC)CC2)n[nH]1`: the “% Inhibition” value is on record as -4% and the Z score is on record as 0.62.

With `Cc1nc(C(C)C)sc1[C@H](C)N(C)Cc1nnc2n1CCCC2`, the “% Inhibition” value came out at 3% and the Z score is -0.34.

Regarding `O=C(Nc1nnc(-c2cccs2)o1)c1ccccn1`, the “% Inhibition” value is -4% and the Z score worked out at 0.48.
